Here are results for four compounds from PubChem BioAssay (EPA / NIEHS).

For part of these data: Most of the hits are listed elsewhere, so they are rarer here than in the full data. Only a part is listed here, and it is no random draw. Results filed as inconclusive are left out. Calls of active or inactive are those of the source. Rule for the calls, unless noted: active = hit-call score of the fitted dose curve at least 0.9, where 1 is the maximum; inactive = score below 0.9.

Read-out in assay [1]: Monocyte Chemoattractant Protein-1 (MCP1), CCL2 (gene 6347)
As to the kind of experiment: BSK_SAg_MCP1: BioMAP Diversity Plus: SAg Assay for Monocyte Chemoattractant Protein-1 (MCP1) Biomarker Activity (AID 2283090). The note with it: actives raise or lower the signal; primary human HUVEC with PBMC. In short, it runs like this:
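MCP-1 levels in the endothelial–PBMC SAg co-culture were quantified by ELISA at 24 h post-dosing; both increases and decreases versus DMSO scored. Cytotoxicity monitored by SRB total protein in parallel cultures.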

Read-out in assay [2]: CFLAR gene, CFLAR (gene 8837)
Put plainly: LTEA_HepaRG_CFLAR: Life Technologies and Expression Analysis (LTEA) Assay for CFLAR gene using HepaRG (AID 2283455). The note with it: actives raise or lower the signal; mRNA level, 48 h. The procedure, abridged: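 Differentiated HepaRG cells in serum-free induction medium were exposed 48 h in duplicate to eight half-log concentrations up to 100 uM in 0.5% DMSO; mRNA measured by TaqMan qRT-PCR, normalized to ACTB, GAPDH, POLR2A; bidirectional fitting versus DMSO.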

Read-out in assay [3]: growth arrest and DNA damage 45 (GADD45A), GADD45A (gene 1647)
Put plainly: LTEA_HepaRG_GADD45A: Life Technologies and Expression Analysis (LTEA) Assay for growth arrest and DNA damage 45 (GADD45A) using HepaRG (AID 2283458). The note with it: actives raise or lower the signal; mRNA level, 48 h. In short, it runs like this:
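Cells plated and cultured 48 h, switched to serum-free induction medium, then dosed for 48 h (100 uM top, half-log dilutions, 0.5% DMSO). RNA was isolated and transcript measured by Fluidigm qRT-PCR.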

Read-out in assay [4]: Bcl-2 (BAX) gene, BAX (gene 581)
Put plainly: LTEA_HepaRG_BAX: Life Technologies and Expression Analysis (LTEA) Assay for Bcl-2 (BAX) gene using HepaRG (AID 2283470). The conditions noted are these: actives raise or lower the signal; mRNA level, 48 h. In short, it runs like this:
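HepaRG (human liver), 48 h exposure, duplicate wells. 8-pt curve, half-log from 100 uM, 0.5% DMSO. BAX transcript by TaqMan qRT-PCR; ACTB/GAPDH/POLR2A normalization; gain or loss vs DMSO baseline.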

Read-out in the next assay: BCL2L11 (gene 10018)
Put plainly: LTEA_HepaRG_BCL2L11: Life Technologies and Expression Analysis (LTEA) Assay for Bcl-2 (BCL2L11) gene using HepaRG (AID 2283473). The conditions noted are these: actives raise or lower the signal; mRNA level, 48 h. The procedure, abridged: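 Differentiated human HepaRG cells in serum-free induction medium were exposed in duplicate for 48 h to eight concentrations (top 100 uM, half-log steps, 0.5% DMSO). BCL2L11 mRNA was quantified by TaqMan qRT-PCR, normalized to ACTB/GAPDH/POLR2A, bidirectional fit versus DMSO.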

Read-out in assay [5]: MicroRNA 122 (MIR122), gene 406906
Put plainly: LTEA_HepaRG_MIR122: Life Technologies and Expression Analysis (LTEA) Assay for MicroRNA 122 (MIR122) using HepaRG (AID 2283516). Note: the transcript read is the microRNA miR-122. The conditions noted are these: actives raise or lower the signal; mRNA level, 48 h. The procedure, abridged: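 HepaRG plated 48 h, switched to serum-free induction medium, then treated in duplicate for 48 h (100 uM top, half-log steps, 0.5% DMSO vehicle). RNA isolated, qRT-PCR performed, concentration-response fitted both directions relative to DMSO.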

Read-out in assay [6]: X-box binding protein 1 (XBP1), XBP1 (gene 7494)
Put plainly: LTEA_HepaRG_XBP1: Life Technologies and Expression Analysis (LTEA) Assay for X-box binding protein 1 (XBP1) using HepaRG (AID 2283540). The note with it: actives raise or lower the signal; mRNA level, 48 h. The procedure, abridged: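 Differentiated human HepaRG cells in serum-free induction medium were exposed in duplicate for 48 h to eight half-log concentrations up to 100 uM in 0.5% DMSO. XBP1 mRNA was quantified by qRT-PCR, normalised to ACTB, GAPDH and POLR2A, with bidirectional fitting against DMSO.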

Read-out in assay [7]: CD40, CD40 (gene 958)
As to the kind of experiment: BSK_LPS_CD40: BioMAP Diversity Plus: LPS Assay for CD40 Biomarker Activity (AID 2283076). The conditions noted are these: actives raise or lower the signal; primary human HUVEC with PBMC. In short, it runs like this:
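Primary human umbilical vein endothelial cells co-cultured with peripheral blood mononuclear cells, LPS-stimulated, were dosed with chemical and read 24 h later. CD40 levels were measured by ELISA and fitted bidirectionally against DMSO as negative control and baseline.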

Assay [8] in a line: ATG_XTT_Cytotoxicity: Cytotoxicity Assessment in the Attagene TRANS-FACTORIAL HepG2 Assay (AID 2283584; active = hit-call score of the fitted dose curve at least 0.9, where 1 is the maximum). In short, it runs like this:
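HepG2 human liver cells, transiently transfected with multiple GAL4-UAS reporter units, were dosed and read at 24 h by XTT as cell number. Loss of signal was fitted relative to DMSO negative control baseline.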

Assay [9] has as its system turtle Estrogen Receptor (ERa), gene 101933533. As to the kind of experiment: ATG_trERa_XSP2: Attagene TRANS-FACTORIAL Multi-Species (XSP2) HepG2 Assay for turtle Estrogen Receptor (ERa) (AID 2283812; active = hit-call score of the fitted dose curve at least 0.9, where 1 is the maximum;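 note: human HepG2 liver cells transiently expressing turtle ERa-Gal4 chimeric receptor; actives raise reporter signal above DMSO so AC50 reflects agonist activity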). The procedure, abridged:
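HepG2 cells transiently transfected with GAL4-UAS reporter units expressing turtle ERa-Gal4 chimera. Reporter mRNA measured after 24 h dosing by RT-PCR, fluorescent labelling and capillary electrophoresis; gain of signal fitted versus DMSO.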

The test system of assay [10] is frog Estrogen Receptor (ER2), gene 100174814. As to the kind of experiment: ATG_frER2_XSP2: Attagene TRANS-FACTORIAL Multi-Species (XSP2) HepG2 Assay for frog Estrogen Receptor (ER2) (AID 2283828; active = hit-call score of the fitted dose curve at least 0.9, where 1 is the maximum). In short, it runs like this:
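HepG2 cells transiently transfected with multiplexed GAL4-UAS reporter units expressing chimeric frog ER2–Gal4 protein; reporter mRNA measured 24 h after chemical dosing by RT-PCR, fluorescent labeling and capillary electrophoresis. Gain-of-signal fitted relative to DMSO baseline.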

Read-out in assay [11]: CD40, CD40 (gene 958)
Put plainly: BSK_SAg_CD40: BioMAP Diversity Plus: SAg Assay for CD40 Biomarker Activity (AID 2283088). The conditions noted are these: actives raise or lower the signal; primary human HUVEC with PBMC. In short, it runs like this: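 Human umbilical vein endothelial cells co-cultured with PBMC; CD40 levels measured by ELISA with fluorescence read-out 24 h after chemical dosing. Gain or loss of signal fitted bidirectionally against DMSO baseline.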

The target in assay [12] is human Serotonin, 5-Hydroxytryptamine Receptor 7 (5HT7), HTR7 (gene 3363) (UniProt P34969). Put plainly: NVS_GPCR_h5HT7: NovaScreen (NVS) G Protein-Coupled Receptor Assay for human Serotonin, 5-Hydroxytryptamine Receptor 7 (5HT7) (AID 2283255; active = hit-call score of the fitted dose curve at least 0.9, where 1 is the maximum;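 note: hits reduce specific radioligand binding relative to DMSO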). In short, it runs like this: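 Radioligand displacement on membranes from CHO cells expressing human 5HT7, 1 h incubation, filter-based scintillation counting. Primary screen used a single 25 uM concentration in duplicate; actives were followed up in concentration series.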
Sequence of UniProt P34969 (P34969 whole entry, looked up): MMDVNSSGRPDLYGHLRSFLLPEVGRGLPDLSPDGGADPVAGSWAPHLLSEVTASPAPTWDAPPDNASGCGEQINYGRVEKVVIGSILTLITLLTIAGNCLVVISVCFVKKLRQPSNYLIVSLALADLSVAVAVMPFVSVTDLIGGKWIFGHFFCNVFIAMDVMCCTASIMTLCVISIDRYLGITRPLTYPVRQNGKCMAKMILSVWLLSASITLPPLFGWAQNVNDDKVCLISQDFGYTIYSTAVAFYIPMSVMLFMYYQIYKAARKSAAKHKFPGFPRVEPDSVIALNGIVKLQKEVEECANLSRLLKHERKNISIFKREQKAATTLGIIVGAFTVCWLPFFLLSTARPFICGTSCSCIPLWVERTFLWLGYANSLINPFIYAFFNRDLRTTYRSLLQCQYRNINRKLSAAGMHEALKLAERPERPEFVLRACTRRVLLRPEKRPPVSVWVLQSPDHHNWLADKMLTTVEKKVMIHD

Read-out in assay [13]: Interleukin 6 Receptor (IL6R), IL6R (gene 3570)
As to the kind of experiment: LTEA_HepaRG_IL6R: Life Technologies and Expression Analysis (LTEA) Assay for Interleukin 6 Receptor (IL6R) using HepaRG (AID 2283510). The note with it: actives raise or lower the signal; mRNA level, 48 h. The procedure, abridged: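 Readout is IL6R transcript level by TaqMan qRT-PCR, normalized to three housekeeping genes and fitted bidirectionally against 0.5% DMSO controls. Human HepaRG cells received chemicals for 48 h in serum-free induction medium, highest concentration 100 uM.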

For assay [14], the target named is Cytochrome P450 2C18 (Homo sapiens) (UniProt P33260). As to the kind of experiment: NVS_ADME_hCYP2C18: NovaScreen (NVS) CYP450-related Enzyme Activity (ADME) Assay for human CYP2C18 (AID 2283103). In short, it runs like this:
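Cell-free recombinant human CYP2C18 with fluorogenic substrate; fluorescence intensity read 0.5 h after dosing. Single-point screen at 10 uM in duplicate, then concentration-response up to 20 uM; loss of signal fitted against acetonitrile baseline.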

Sequence of Cytochrome P450 2C18 (Homo sapiens) (P33260 whole entry, looked up): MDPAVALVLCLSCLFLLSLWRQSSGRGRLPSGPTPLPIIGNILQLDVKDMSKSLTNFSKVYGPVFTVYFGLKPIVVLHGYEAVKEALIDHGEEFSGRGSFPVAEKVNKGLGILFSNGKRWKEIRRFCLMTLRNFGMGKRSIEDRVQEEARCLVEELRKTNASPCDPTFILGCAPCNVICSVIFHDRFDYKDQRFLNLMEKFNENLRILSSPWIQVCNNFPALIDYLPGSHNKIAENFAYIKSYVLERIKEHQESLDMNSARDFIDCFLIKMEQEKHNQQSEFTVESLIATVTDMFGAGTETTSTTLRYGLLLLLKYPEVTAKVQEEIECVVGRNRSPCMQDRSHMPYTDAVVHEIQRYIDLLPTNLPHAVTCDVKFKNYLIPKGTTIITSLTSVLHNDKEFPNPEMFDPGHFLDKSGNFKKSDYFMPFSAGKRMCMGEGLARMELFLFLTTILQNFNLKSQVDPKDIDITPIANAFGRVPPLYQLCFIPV

For `COP(=O)(OC)OC(Br)C(Cl)(Cl)Br` (stereo not given), the AC50 (in general, the concentration at which the activity in the assay is half-maximal) in assay [1] is active: 30.6 µM; in assay [3] it was active: 0.00316 µM. In addition, the compound was called inactive (in assay [2]; in assay [4]; with BCL2L11 (gene 10018); in assay [5]; in assay [6]).

`Cc1cc(-c2ccc(N)c(C)c2)ccc1N`: the outcome with CD40, CD40 (gene 958) [7] was “inactive”; in [8] it was “inactive”. In addition, the AC50 was active: 25.8 µM in assay [9] and active: 6.73 µM in assay [10].

For `Fc1ccc(Oc2ccnc3cc(Cl)cc(Cl)c23)cc1`, the AC50 in the assay with CD40, CD40 (gene 958) [11] is active: 29.3 µM; in assay [12] it was active: 15.7 µM. For the same compound, in [13], the result was inactive.

`CCOC(=O)C(C)Oc1ccc(Oc2cnc3cc(Cl)ccc3n2)cc1` (stereo not given): the AC50 in assay [14] was active: 6.8 µM.
